The name of at least one read-out is uncertain.
Columns and labels:
Details in all cases: lowest concentration inhibiting 95% of growth (OD600); with BLi relebactam 4 μg/mL; 22 hours, 35±2° C.
[1] = tested on: Pseudomonas aeruginosa expressing AmpC (CL5701); assay: Growth inhibitory concentration (OD600), P. aeruginosa CL5701; assay type: cell-based
[2] = tested on: Escherichia co/i expressing NDM-1 (CLB30016); assay: Growth inhibitory concentration (OD600), E. coli CLB30016; assay type: cell-based, Escherichia coli
[3] = tested on: Acinetobacter baumannii expressing TEM-1, AmpC, and Oxa-24/40 (CL6188); assay type: cell-based
[4] = tested on: Klebsiella pneumoniae expressing KPC-1 (CL6569); assay: Growth inhibitory concentration (OD600), K. pneumoniae CL6569; assay type: cell-based

Compound: CC1(C)[C@H](NC(=O)/C(=N\O[C@](C)(C(=O)O)[C@H]2CCc3cc(C(=N)N[C@@H]4CCC[C@H](N)C4)ccc3O2)c2csc(N)n2)C(=O)N1OS(=O)(=O)O [Compound 110, (S)-2-((R)-6-(N-((1R,3S)-3-aminocyclohexyl)carbamimidoyl)chroman-2-yl)-2-((((Z)-1-(2-aminothiazol-4-yl)-2-(((S)-2,2-dimethyl-4-oxo-1-(sulfooxy)azetidin-3-yl)amino)-2-oxoethylidene)amino)oxy)propanoic acid]
- PA_CL5701 MITC95 [1]: 1.563 µM
- EC_CLB30016 MITC95 [2]: 3.125 µM
- AB_CL6188 MITC95 [3]: 3.125 µM
- KP_CL6569 MITC95 [4]: 0.3906 µM

Compound: CC1(C)[C@H](NC(=O)/C(=N\O[C@](C)(C(=O)O)[C@H]2CCc3cc(C(=N)N[C@@H]4CCNC4)ccc3O2)c2csc(N)n2)C(=O)N1OS(=O)(=O)O [Compound 2, (S)-2-((((Z)-1-(2-aminothiazol-4-yl)-2-(((S)-2,2-dimethyl-4-oxo-1-(sulfooxy)-azetidin-3-yl)amino)-2-oxoethylidene)amino)oxy)-2-((R)-6-(N—((R)-pyrrolidin-3-yl)-carbamimidoyl)-chroman-2-yl)propanoic acid]
- PA_CL5701 MITC95 [1]: 1.563 µM
- EC_CLB30016 MITC95 [2]: 3.125 µM
- AB_CL6188 MITC95 [3]: 3.125 µM
- KP_CL6569 MITC95 [4]: 0.3906 µM

Compound: CC1(C)[C@H](NC(=O)/C(=N\O[C@](C)(C(=O)O)[C@H]2CCc3cc(C(=N)NC45CCCC(N)(C4)C5)ccc3O2)c2csc(N)n2)C(=O)N1OS(=O)(=O)O [Compound 15, (S)-2-((R)-6-(N-(5-aminobicyclo[3.1.1]heptan-1-yl)carbamimidoyl)chroman-2-yl)-2-((((Z)-1-(2-aminothiazol-4-yl)-2-(((S)-2,2-dimethyl-4-oxo-1-(sulfooxy)azetidin-3-yl)amino)-2-oxoethylidene)amino)oxy)propanoic acid]
- PA_CL5701 MITC95 [1]: 1.563 µM
- EC_CLB30016 MITC95 [2]: 6.25 µM
- AB_CL6188 MITC95 [3]: 6.25 µM
- KP_CL6569 MITC95 [4]: 0.7813 µM

Compound: CC1(C)[C@H](NC(=O)/C(=N\O[C@](C)(C(=O)O)[C@H]2CCc3cc(C(=N)N[C@@H]4CCNC[C@@H]4CO)ccc3O2)c2csc(N)n2)C(=O)N1OS(=O)(=O)O (single isomer, unassigned) [Compound 52]
- PA_CL5701 MITC95 [1]: 3.125 µM
- EC_CLB30016 MITC95 [2]: 6.25 µM
- AB_CL6188 MITC95 [3]: 6.25 µM
- KP_CL6569 MITC95 [4]: 0.3906 µM

Compound: CC1(C)[C@H](NC(=O)/C(=N\O[C@](C)(C(=O)O)[C@H]2CCc3cc(C(=N)N[C@H]4CC[C@H](N)C4)ccc3O2)c2csc(N)n2)C(=O)N1OS(=O)(=O)O (single isomer, unassigned) [Compound 47]
- PA_CL5701 MITC95 [1]: 1.563 µM
- EC_CLB30016 MITC95 [2]: 6.25 µM
- AB_CL6188 MITC95 [3]: 3.125 µM
- KP_CL6569 MITC95 [4]: 0.3906 µM

Compound: COCC[C@]1(N)C[C@H](NC(=N)c2ccc3c(c2)CC[C@H]([C@](C)(O/N=C(\C(=O)N[C@@H]2C(=O)N(OS(=O)(=O)O)C2(C)C)c2csc(N)n2)C(=O)O)O3)C1 [Compound 92, (S)-2-((R)-6-(N-((1r,3R)-3-amino-3-(2-methoxyethyl)cyclobutyl)carbamimidoyl)chroman-2-yl)-2-((((Z)-1-(2-aminothiazol-4-yl)-2-(((S)-2,2-dimethyl-4-oxo-1-(sulfooxy)azetidin-3-yl)amino)-2-oxoethylidene)amino)oxy)propanoic acid]
- PA_CL5701 MITC95 [1]: 1.563 µM
- EC_CLB30016 MITC95 [2]: 6.25 µM
- AB_CL6188 MITC95 [3]: 6.25 µM
- KP_CL6569 MITC95 [4]: 0.3906 µM

Compound: CC1(C)[C@H](NC(=O)/C(=N\O[C@](C)(C(=O)O)[C@H]2CCc3cc(C(=N)N[C@H]4CC[C@@H](C(C)(C)N)CC4)ccc3O2)c2csc(N)n2)C(=O)N1OS(=O)(=O)O [Compound 132, (S)-2-((R)-6-(N-((1s,4S)-4-(2-aminopropan-2-yl)cyclohexyl)carbamimidoyl)chroman-2-yl)-2-((((Z)-1-(2-aminothiazol-4-yl)-2-(((S)-2,2-dimethyl-4-oxo-1-(sulfooxy)azetidin-3-yl)amino)-2-oxoethylidene)amino)oxy)propanoic acid]
- PA_CL5701 MITC95 [1]: 3.125 µM
- EC_CLB30016 MITC95 [2]: 6.25 µM
- AB_CL6188 MITC95 [3]: 6.25 µM
- KP_CL6569 MITC95 [4]: 0.7813 µM

Compound: CC1(CN)CC(NC(=N)c2ccc3c(c2)CC[C@H]([C@](C)(O/N=C(\C(=O)N[C@@H]2C(=O)N(OS(=O)(=O)O)C2(C)C)c2csc(N)n2)C(=O)O)O3)C1 (stereo partly drawn) [Compound 118, (S)-2-((R)-6-(N-((1r,3R)-3-(aminomethyl)-3-methylcyclobutyl)carbamimidoyl)chroman-2-yl)-2-((((Z)-1-(2-aminothiazol-4-yl)-2-(((S)-2,2-dimethyl-4-oxo-1-(sulfooxy)azetidin-3-yl)amino)-2-oxoethylidene)amino)oxy)propanoic acid]
- PA_CL5701 MITC95 [1]: 1.563 µM
- EC_CLB30016 MITC95 [2]: 12.5 µM
- AB_CL6188 MITC95 [3]: 3.125 µM
- KP_CL6569 MITC95 [4]: 0.3906 µM

Compound: CC1(C)[C@H](NC(=O)/C(=N\O[C@](C)(C(=O)O)[C@H]2CCc3cc(C(=N)N[C@H]4[C@@H]5CNC[C@@H]54)ccc3O2)c2csc(N)n2)C(=O)N1OS(=O)(=O)O [Compound 37, (S)-2-((R)-6-(N-((1R,5S,6s)-3-azabicyclo[3.1.0]hexan-6-yl)carbamimidoyl)chroman-2-yl)-2-((((Z)-1-(2-aminothiazol-4-yl)-2-(((S)-2,2-dimethyl-4-oxo-1-(sulfooxy)-azetidin-3-yl)amino)-2-oxoethylidene)amino)oxy)propanoic acid]
- PA_CL5701 MITC95 [1]: 1.563 µM
- EC_CLB30016 MITC95 [2]: 3.125 µM
- AB_CL6188 MITC95 [3]: 6.25 µM
- KP_CL6569 MITC95 [4]: 0.3906 µM

From patent US20250019376A1, “CHROMANE AMIDINE MONOBACTAM ANTIBIOTICS” (priority 2021, published 2025)
